# Measurements taken from publication PMC4336329 (PLoS ONE, 2015).
# Out of some 310,000 compounds screened, about 14,000 (4.5%) showed an effect of 50% or more. Effects have a minus sign here. The list shows a part of the results.
# Target: human ether-à-go-go-related gene (hERG) potassium channel (human, UniProt Q12809)
# Test: primary screen, population patch clamp on CHO cells stably expressing hERG
# 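Also: peak tail current of the secondary pulse compared with the same well before compound.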
# human ether-à-go-go-related gene (hERG) potassium channel, sequence (Q12809 whole entry, looked up): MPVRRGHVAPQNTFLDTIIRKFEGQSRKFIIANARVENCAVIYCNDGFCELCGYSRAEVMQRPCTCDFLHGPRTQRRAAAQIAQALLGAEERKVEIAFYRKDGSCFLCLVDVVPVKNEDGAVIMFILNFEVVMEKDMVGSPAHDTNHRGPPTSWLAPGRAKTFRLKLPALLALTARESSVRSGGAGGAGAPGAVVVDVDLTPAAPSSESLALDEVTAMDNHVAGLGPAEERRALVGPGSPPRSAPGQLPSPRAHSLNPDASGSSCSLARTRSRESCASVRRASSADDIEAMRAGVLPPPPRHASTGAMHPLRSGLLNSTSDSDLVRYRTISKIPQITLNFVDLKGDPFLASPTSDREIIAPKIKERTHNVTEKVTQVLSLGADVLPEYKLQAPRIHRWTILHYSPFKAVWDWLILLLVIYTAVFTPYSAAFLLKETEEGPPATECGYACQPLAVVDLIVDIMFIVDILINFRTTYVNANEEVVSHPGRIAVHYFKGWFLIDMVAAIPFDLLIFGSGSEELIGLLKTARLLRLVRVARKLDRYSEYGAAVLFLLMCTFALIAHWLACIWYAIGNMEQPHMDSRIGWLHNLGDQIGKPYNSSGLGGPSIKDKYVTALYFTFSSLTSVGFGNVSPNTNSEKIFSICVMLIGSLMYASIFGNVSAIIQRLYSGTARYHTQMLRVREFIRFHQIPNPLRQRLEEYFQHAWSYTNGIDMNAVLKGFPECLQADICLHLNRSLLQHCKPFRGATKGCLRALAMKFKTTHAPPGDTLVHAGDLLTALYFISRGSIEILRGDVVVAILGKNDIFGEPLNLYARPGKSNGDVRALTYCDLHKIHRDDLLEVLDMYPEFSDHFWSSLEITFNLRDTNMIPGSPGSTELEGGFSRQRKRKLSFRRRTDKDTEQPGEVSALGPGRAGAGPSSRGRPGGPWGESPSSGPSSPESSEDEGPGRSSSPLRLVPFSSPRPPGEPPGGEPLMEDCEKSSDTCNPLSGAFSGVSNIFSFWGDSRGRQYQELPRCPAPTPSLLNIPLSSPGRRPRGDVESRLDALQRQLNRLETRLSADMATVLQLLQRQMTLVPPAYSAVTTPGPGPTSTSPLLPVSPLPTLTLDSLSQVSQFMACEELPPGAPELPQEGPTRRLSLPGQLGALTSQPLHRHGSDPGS
row,Compound,"hERG current change (%, negative = inhibition) at 10uM"
1,CCCCOc1ccc(-c2cnc3ccccc3n2)cc1,8.79%
2,Nc1c(NC(=O)CC[n+]2ccccc2)cccc1[N+](=O)[O-].[Cl-],-0.613%
3,O=C(Nc1nnc(C2CC2)s1)c1cccnc1Oc1ccc(Cl)cc1,12%
4,O=C1C(=O)N(CCS(=O)(=O)c2ccccc2)c2ccc(F)cc21,8.67%
5,Cc1cc(OC(C)C(=O)N2CCN(c3ccc(F)cc3)CC2)c2c(C)c(C)c(=O)oc2c1 (stereo not shown),-29.1%
6,COc1ccccc1C(=O)OCC(=O)Nc1cc(S(=O)(=O)N2CCOCC2)ccc1N1CCCC1,-7.82%
7,CCN(CC(=O)Nc1ccccc1OC)CC(=O)Nc1ccccc1C(F)(F)F,-5.29%
8,CCOCCCNC(=S)N1CCN(CC)CC1.O=C(O)C(=O)O,15.3%
9,CCOCCOc1cccc(C(=O)NC(c2ccccc2)C(C)C)c1 (stereo not shown),-3.6%
10,Fc1ccc(CN2CCSCC2)cc1Br,-11.1%
11,Fc1ccc(NC(=S)Nc2ccc(Cl)cc2Cl)cc1,15.3%
12,COc1ccc(C2CC(c3ccccc3)=NN2C(=O)CN2CCN(Cc3ccccc3)CC2)cc1 (stereo not shown),-31.2%
13,CCN(CC)S(=O)(=O)c1ccc(-n2c(=O)c(C(C)C)c(C)n2C)cc1,-3.98%
14,Cc1onc(-c2ccccc2Cl)c1C(=O)N1CCC(Cc2ccccc2)CC1,13.8%
15,CCN(CC(=O)NC1CC1)S(=O)(=O)c1ccccc1,10%
16,Cc1ccc(S(=O)(=O)NCCC(c2ccccc2)c2ccco2)cc1 (stereo not shown),0.23%
17,Cc1cccc(N2CCN(C(=O)/C=C/c3cccs3)CC2C)c1 (stereo not shown),-36.3%
18,O=C(O)C(=O)O.c1ccc(COc2cccc(CN3CCCCC3)c2)cc1,-19.2%
19,CCN(CC)c1ccc(C(=O)NNC(=O)C2CSC3(C)CCC(=O)N23)cc1 (stereo not shown),-4.88%
20,CCC(=O)N1N=C(c2cccs2)CC1c1ccco1 (stereo not shown),4.53%
21,CN1CCC(N(C)C(=O)/C(C#N)=C/c2ccccc2)CC1.Cl,15.4%
22,O=C(NCCN1CCOCC1)C1CC(=O)N(c2ccc(Cl)cc2)C1 (stereo not shown),9.18%
23,S=C(NC12CC3CC(CC(C3)C1)C2)N1CCCC1,9.45%
24,CCCOc1ccc(-c2nc(-c3ccc(N)cc3)cs2)cc1,8.53%
25,CN(CCOc1ccccc1)C(=O)c1ccc(N2CCCC2)c([N+](=O)[O-])c1,-27.5%
